Laboratory results published in paper PMC12040169 (PLOS Biology, 2025).
Some of the results follow.

Tested on: T1, C. trachomatis L2/434/Bu expressing GFP (CTL2-GFP)
T1 construct: L2/434/Bu GFP intracellular growth in HeLa cells
Design: species or system HeLa; C. trachomatis total inclusion area by high-content imaging, normalised to DMSO
Conditions: total inclusion area; 28.5 h, 10 µM; inhibitor
How it was run: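 Host cell viability was gauged from Hoechst-stained nuclei counts, while chlamydial growth was taken from total inclusion area and inclusion number per well. Cells were fixed and imaged by high-content microscopy once bulk GFP and resorufin fluorescence had been measured.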

SMILES | % of control remaining
COc1ccc(-c2nnc3[nH]c(=O)n(C)c(=O)c3n2)cc1OC [CBK263914] | 93.7338
c1ccc(OCCOc2ccc(N3CCNCC3)nn2)cc1 [CBK022577F] | 9.357
O=c1c2ccccc2nc2n1CCN(Cc1cc(F)ccc1F)CC2 [CBK284818] | 109.906
O=[N+]([O-])c1ccccc1S(=O)(=O)N1CCN(c2ccccc2)CC1 [CBK261755] | 103.687
CCc1nnc2sc(-c3ccc(C)c(NC(=O)c4ccc(N5CCCCC5)c([N+](=O)[O-])c4)c3)nn12 [CBK268476] | 94.9819
S=C(NNC(=S)Nc1ccc(Cl)c(Cl)c1)Nc1cccnc1 [CBK268483] | 78.0902
O=C(c1ncc(F)cc1F)N1CCCCC1CN1CCOCC1 (stereo not drawn) [CBK305482] | 116.494
CCN(CC)CCN1CCN(c2cc(-c3ccc(OC(F)(F)F)cc3)ncn2)CC1 [CBK037756] | 152.305
CCCn1c(SCC(=O)N2CCOCC2)nc2cc(Cl)ccc2c1=O [CBK306482] | 90.4177
COc1cc(OC)cc(C(=O)Nc2ccc(C(=O)c3ccccc3)cc2)c1 [CBK098732] | 79.9418
Cc1cccc2c1ncn1c(=O)n(CC(=O)Nc3cccc(Cl)c3)nc21 [CBK287815] | 103.507
CCNc1ncc(C(=O)N2CCOC(c3ccc(F)c(C)c3)C2)s1 (stereo not drawn) [CBK306375] | 19.6459
COc1ccc(S(=O)(=O)NCCSCc2cccc(Cl)c2)c(Cl)c1Cl [CBK266281] | 130.323
COCCCNC(NC(=O)c1ccc(C)cc1)C(Cl)(Cl)Cl (stereo not drawn) [CBK263087] | 93.3726
c1ccc(CN2CCC(c3ccncc3)CC2)nc1 [CBK283505] | 76.0521
CN1CCN(c2nc3c(c(=O)n(C)c(=O)n3C)n2CCSc2nc3ccccc3o2)CC1 [CBK269452] | 100.576
NS(=O)(=O)c1ccc(CNC(=S)NC2CCCC2)cc1 [CBK265802] | 63.1887
Fc1ccc([C@@H]2COC[C@H]2NCc2ccsc2)cc1 [CBK282598] | 117.572
Cc1cc(NC(=O)C2CCN(CCOc3ccccc3F)CC2)no1 [CBK305688] | 48.4398
CCc1ccc2c(COC(=O)c3cccnc3SC)cc(=O)oc2c1 [CBK297486] | 98.9254
CCc1nccn1CC(=O)NC(Cc1ccsc1)c1nccs1 (stereo not drawn) [CBK285139] | 66.3849
COc1ccc(C23CCCN(C)C2C[C@@H](O)CC3)cc1OC (stereo partly drawn) [CBK016226C] | 18.5003
Cc1ccccc1C(=O)N1C2CCC1CC(O)(Cn1ccnc1C)C2 (stereo not drawn) [CBK282740] | 112.97
COc1cc(OC)cc(C(=O)N2CCC3(CC2)CC(=O)c2cc(F)cc(F)c2O3)c1 [CBK168089] | 97.3247
O=C(NCC(O)c1ccc2ccccc2c1)c1cnc(-c2ccccc2)c(-c2ccncc2)c1 (stereo not drawn) [CBK037438] | 95.3274
O=C(Cc1csc(-c2ccc(Cl)cc2)n1)NCC1CCCN1 (stereo not drawn) [CBK160982] | 140.469

SMILES | % of control remaining
CNS(=O)(=O)c1cc(C(=O)NCc2ccco2)ccc1OC [CBK270180] | 98.8503
Cc1ccc(/C=C/C(=O)O)cc1S(=O)(=O)N(CCO)CCO [CBK264840] | 108.726
COc1ccccc1CN(CCN(C)C)C(=O)Cc1c(C)[nH]c(=O)[nH]c1=O [CBK286343] | 84.3754
COc1nccnc1OC1CCN(CCCC#N)CC1 [CBK084255] | 102.891
O=C1CCC(=O)N1CCOc1nccnc1OC1CCN(Cc2ccccc2-c2ccccc2)CC1 [CBK084344] | 87.8646
O=C(Nc1cnc(-c2ccc(F)c(Cl)c2)c(-c2cccnc2)n1)c1ccc(N2CCCC2=O)cc1 [CBK036794] | 114.087
Cc1nc(C)c(CCC(=O)N2CCCCC2Cn2cccn2)c(=O)[nH]1 (stereo not drawn) [CBK305310] | 91.1545
COc1ccc(Nc2nc(N)nc(CN3CC(C)CC(C)C3)n2)cc1 (stereo not drawn) [CBK288154] | 90.1431
CC1(C)CC(=O)c2sc(NC(=O)c3ccc(Oc4ccccc4)cc3)nc2C1 [CBK144106] | 91.3142
FC(F)c1cc([C@@H]2CN(CC3CCOC3)C[C@H]2c2ccccc2)n[nH]1 (stereo partly drawn) [CBK285430] | 90.735
O=C(Cc1ccc(F)cc1)Nc1cccc(-c2noc(-c3ccc(F)cc3)n2)c1 [CBK299821] | 76.0439
O=C(O)CCc1ccc(-c2ccc(Cl)cc2)[nH]1 [CBK264781] | 84.7236
O=S(=O)(c1ccc2ccccc2c1)N1CCN(C2CCC(c3ccccc3)CC2)CC1 (stereo not drawn) [CBK264152] | 119.744
Cc1nn(CC(=O)NCC2CC2)c(=O)c2cc3sccc3n12 [CBK284025] | 92.9432
Cc1cc(=O)[nH]c(-n2nc(C)cc2NC(=O)c2ccccc2)n1 [CBK287653] | 84.5251
CCn1c(SCC(=O)Nc2cccc([N+](=O)[O-])c2)nnc1-c1cc(Br)ccc1O [CBK267980] | 99.7304
O=C(c1ccco1)N1CCN(c2ncnc3scc(-c4cccs4)c23)CC1 [CBK267208] | 102.347
COc1ccccc1CN(Cc1cccnc1)C(=O)CCC(F)(F)F [CBK307713] | 38.5851
CCn1c(C(CC(C)C)NC(=O)C2CC2)nc2cccnc21 (stereo not drawn) [CBK283736] | 79.9159
COc1cc(CNc2cccc(-c3ccsc3)n2)cc(OC)c1 [CBK037592] | 73.6741
Nc1cc(-c2ccco2)nn(Cc2c(F)cccc2Cl)c1=O [CBK282881] | 75.1126
O=C(O)CNC(=O)Cn1ccc2ccc(OCc3ccccc3)cc21 [CBK286644] | 97.261
O=C(NCc1ccc(OC(F)(F)F)cc1)c1cnoc1-c1ccc(F)cc1 [CBK154952] | 101.733
CN1C(=O)c2ccccc2C(=O)[C@@]2(C)CN(C(=O)C3CC3)C[C@@H]12 [CBK284569] | 105.123
CCCCC(NS(=O)(=O)Cc1ccccc1)C(=O)O (stereo not drawn) [CBK286798] | 94.7934
